Data: PubChem BioAssay AID1963576 (National Center for Advancing Translational Sciences (NCATS), 2024)
The campaign covered roughly 46,000 compounds. About 60 (0.1%) were called active. Another 3% or so got no clear call; they are omitted. Calls come from the whole dose curve; as a rule, active = well fitted inhibition curve with a large enough effect; inconclusive = small, poorly fitted or top-dose-only effect; inactive = no such curve, though single readings can be large or run the other way. This is one part of the list.

test: Primary qHTS assay for Inhibitors of ovarian cancer metastasis using an organotypic tumor microenvironment (TME) model.; note: nearly all actives have a fitted effect of over 65% in size;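 for activity change, negative = inhibition: plate controls were DMSO wells for no effect and tomatine positive control wells for full effect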; settings: SKOV3ip1-GFP adhesion/invasion on 3D omental model, fluorescence; series mostly up to 45.8 µM; activity change, negative = inhibition: at the top concentration
Method in brief: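 Primary human omental fibroblast/mesothelial 3D culture pre-formed 48 h. SKOV3ip1-GFP cells added with compounds (0.36-46 umol/L), incubated 2 h RT/16 h 37 C, fixed; GFP cells quantified at 488/509 nm.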

| SMILES | activity change, negative = inhibition | outcome |
| --- | --- | --- |
| O=C(Nc1c2c(nn1-c1ccc(Cl)cc1)CS(=O)(=O)C2)c1ccccc1F | inactive: 29.3% |  |
| CCOc1ccc(CCNC(=O)Cn2nc(CC)n3c(cc4sccc43)c2=O)cc1 |  | inactive |
| Fc1ccc(Cn2c(-c3cccc(Br)c3)nc3ccccc32)cc1 | inactive: -7.21% |  |
| Cc1ccc(NC(=O)c2sc(-n3nc(C)c(Cc4ccc5c(c4)OCO5)c3C)nc2C)cc1C | inactive: 0.919% |  |
| CCC(C(=O)NCc1ccccc1Cl)n1nc(C)c2sc3ccccc3c2c1=O (stereo unspecified) |  | inactive |
| CCOc1cc(C2c3c(-c4ccccc4O)n[nH]c3C(=O)N2Cc2cccnc2)ccc1O (stereo unspecified) | inactive: -3.63% |  |
| Cc1cccc(NC(=O)CSc2nccn2-c2cccc(Cl)c2)c1C |  | inactive |
| COc1ccc(C(=O)Nc2noc3ccccc23)cc1 | inactive: -1.71% |  |
| O=c1cc(-c2ccccc2)n2c(SCc3cccc([N+](=O)[O-])c3)nnc2[nH]1 |  | inactive |
| CNS(=O)(=O)c1cn(CC(=O)N2CCN(c3cc(C)ccc3C)CC2)cc1S(=O)(=O)NC | inactive: -5.67% |  |
| Cc1cc(C)cc(NC(=O)CSCc2cc(=O)c3ccc(C)c(C)c3[nH]2)c1 | inactive: -3.58% |  |
| CCOC(=O)CN1C(=O)c2cccnc2Oc2ccccc21 | inactive: -0.799% |  |
| O=C(CCCn1c(=O)c2sccc2n(Cc2cccc(Cl)c2)c1=O)NCc1ccc2c(c1)OCO2 |  | inactive |
| COc1ccc(NC(=O)CSc2nc(-c3ccco3)nc3cc(=O)[nH]n23)cc1 | inactive: -4.68% |  |
| COc1ccc(CCNC(=O)CCn2c(=O)c3cccn3c3cccnc32)cc1OC | inactive: -3.7% |  |
| CCc1ccccc1Nc1nc2ccccc2n2cnnc12 | inactive: 1.06% |  |
| CCCCN(c1ccccc1)S(=O)(=O)c1ccc2c(c1)CC(C)N2C(=O)C1CC1 (stereo unspecified) | inactive: -9.02% |  |
| NC(=O)C1CCN(C(=O)Cn2c(-c3cccs3)cc3ccccc32)CC1 | inactive: -12% |  |
| Cc1cc(C(=O)Nc2c(C)nn(Cc3ccc(F)cc3)c2C)no1 | inactive: 6.28% |  |
| CCOc1ccc(NC(=O)CN2CCN(CC(=O)Nc3ccccc3OCC)CC2)cc1 | inactive: -3.77% |  |
| CCC(C)(C)c1ccc(CC(C)CN2C[C@@H](C)O[C@@H](C)C2)cc1 (stereo partly specified) | inactive: -16.9% |  |
| CCOc1cc(C(=O)N2CCC(c3ccncc3)CC2)cc(OCC)c1OCC | inactive: 5.24% |  |
| COc1ccc(Cl)cc1NC(=O)CSc1nc(-c2ccco2)cc(C(F)(F)F)n1 | inactive: -7.37% |  |

| SMILES | activity change, negative = inhibition | outcome |
| --- | --- | --- |
| COc1ccc(-c2oc3ncn4nc(-c5ccccc5C)nc4c3c2-c2ccc(OC)cc2)cc1 |  | inactive |
| Cc1cccc(C)c1OC(=O)CSc1nnc(-c2cccs2)o1 | inactive: -3.97% |  |
| CCOC(=O)c1ccc(NC(=O)COC(=O)c2cn(CC)c3nc(C)ccc3c2=O)cc1 | inactive: -5.65% |  |
| COc1ccccc1-n1nc(-c2ccccc2)c2cnc3cc(C(F)(F)F)ccc3c21 | inactive: -10.6% |  |
| CC1CN(S(=O)(=O)c2ccc3c(c2)NC(=O)CC(=O)N3)c2ccccc2O1 (stereo unspecified) | inactive: -2.12% |  |
| COc1ccc(CNC(=O)CCc2nnc3n(CC(C)C)c(=O)c4ccccc4n23)cc1 |  | inactive |
| O=S(=O)(Nc1ccc(-c2ccc(N3CCCC3)nn2)cc1)c1cccc(C(F)(F)F)c1 |  | inactive |
| Cc1ccc(C)c(CN2C(=O)c3ccccc3S(=O)(=O)c3ccc(C(=O)N4CCN(c5ccccc5F)CC4)cc32)c1 | inactive: 19.2% |  |
| CCOC(=O)c1ccc(C#Cc2ccc3c(c2)C(C)(C)CCS3)nc1 | inactive: -13.5% |  |
| CCOC(=O)C1=C(CN2CCN(c3cc(C)ccc3C)CC2)NC(=O)NC1c1ccc(Cl)cc1 (stereo unspecified) | inactive: -1.84% |  |
| COc1cccc(NC(=O)Cn2c(=O)n(CCCCC(=O)NCCc3ccccc3)c(=O)c3ccccc32)c1 | inactive: -0.923% |  |
| CCS(=O)(=O)N1CCc2cc(C(=O)Nc3cc(C(F)(F)F)ccc3Cl)ccc21 | inactive: 7.32% |  |
| CCn1ccc2cc(S(=O)(=O)N3CCCN(C(=O)NCCOC)CC3)ccc21 |  | inactive |
| COc1ccc(C)cc1NS(=O)(=O)c1ccc2[nH]c(=O)c(=O)[nH]c2c1 |  | inactive |
| Cc1ccccc1C(=O)Nc1ccc2c(c1)CCCN2C(=O)c1cccs1 | inactive: -9.88% |  |
| CSc1ccc(CNC(=O)CCn2c(=O)c3cccn3c3ccc(F)cc32)cc1 | inactive: 8.27% |  |
| Cc1cccc(NC(=O)c2ccc(-c3nc(CSc4ccccc4)c(C)o3)cc2)c1C | inactive: -17.9% |  |
| COc1ccccc1CNC(=O)c1cnc2sc(N3CCCCCC3)nn2c1=O | inactive: -0.54% |  |
| O=C(CSc1nnc2ccc3ccccc3n12)c1ccc(F)cc1 | inactive: 0.266% |  |
| Cc1ccc(C(=O)Nc2onc3c2CCCC3)cc1 | inactive: -11.1% |  |
| O=c1c2ccccc2n(Cc2ccccc2F)c(=O)n1-c1cccc(F)c1 |  | inactive |
| COCCNC(=O)CCN1C(=O)c2cccnc2Oc2ccc(C)cc21 | inactive: -0.876% |  |
| COc1ccc(C(=O)Nc2ccc(-c3nc4ccccc4s3)cc2C)cc1Cl | inactive: 4.43% |  |
